Experimental data taken from PubChem BioAssay AID1030 (National Center for Advancing Translational Sciences (NCATS), 2008).
About 16,000 (7.3%) of roughly 220,000 compounds were called active. Inconclusive results, whose numbers are uncertain, are shown with a selection of clear calls. Calls follow the shape of the dose curve; as a rule, active = well fitted inhibition curve with a large enough effect (not every such curve was filed as active); inconclusive = small, poorly fitted or top-dose-only effect, or another doubt; inactive = no such curve, though single readings can be large or run the other way. Potencies beside an inconclusive call are fits to weak or partial responses and may not hold up.

Each molecule was assayed against Aldehyde dehydrogenase 1A1 (Homo sapiens) (UniProt P00352) (assay: qHTS Assay for Inhibitors of Aldehyde Dehydrogenase 1 (ALDH1A1)). Settings: Purified ALDH1A1, NADH fluorescence, propionaldehyde substrate; series mostly up to 75.3 µM; activity, negative = inhibition: at the top concentration.
Chain of UniProt P00352 (P00352 whole entry, looked up): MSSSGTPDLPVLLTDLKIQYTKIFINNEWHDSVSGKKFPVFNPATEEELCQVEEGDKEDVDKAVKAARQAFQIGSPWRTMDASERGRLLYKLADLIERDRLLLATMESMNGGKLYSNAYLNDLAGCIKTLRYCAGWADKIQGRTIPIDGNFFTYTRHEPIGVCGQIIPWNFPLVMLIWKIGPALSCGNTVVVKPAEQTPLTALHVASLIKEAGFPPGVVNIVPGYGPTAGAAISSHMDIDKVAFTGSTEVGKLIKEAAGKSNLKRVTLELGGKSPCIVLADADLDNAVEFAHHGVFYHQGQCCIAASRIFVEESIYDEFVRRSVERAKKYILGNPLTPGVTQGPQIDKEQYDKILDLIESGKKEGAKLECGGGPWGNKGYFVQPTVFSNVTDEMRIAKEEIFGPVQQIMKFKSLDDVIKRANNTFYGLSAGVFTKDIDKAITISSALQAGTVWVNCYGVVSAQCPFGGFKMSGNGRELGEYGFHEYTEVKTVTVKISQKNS

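For activity, negative = inhibition in this document: plate controls were no enzyme wells and a reference inhibitor.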
Potency is read from the fitted curve at half-maximal effect; tags tell the direction and shape of the fitted curve.

Potency, inconclusive:
Cc1cccc(C)c1N1C(=O)CC(N(O)c2ccccc2)C1=O (stereo unspecified) 31.6 µM [inhibitor, single point]
O=S(=O)(c1ccc(Oc2ccc(Cl)cc2)c(S(=O)(=O)N2CCCCC2)c1)N1CCCCC1 3.55 µM [inhibitor, full curve]
COC(=O)c1sc(NC(=O)COc2ccccc2C)nc1C 39.8 µM [inhibitor, single point]
COC(=O)CSc1ccc2nnc(CCNS(=O)(=O)c3ccc(C)cc3)n2n1 44.7 µM [inhibitor, single point]
Cc1nc2n(n1)C(c1ccccc1)C1=C(CC(c3ccco3)CC1=O)N2 (stereo unspecified) 39.8 µM [inhibitor, single point]
CCc1c(C(C)S(=O)(=O)c2ccc(C)cc2)[nH]c(=O)n1-c1ccc(C)cc1 (stereo unspecified) 39.8 µM [inhibitor, single point]
CC1CCN(c2ccc(NC(=S)NC(=O)c3ccco3)cc2)CC1 39.8 µM [inhibitor, single point]
Cc1nc2ccccc2n1CSc1ccccc1 25.1 µM [inhibitor, partial curve]
Cc1nn(C(C)C(=O)NCCCc2ccccc2)c(=O)c2cc3occc3n12 (stereo unspecified) 22.4 µM [inhibitor, single point]
C=CCn1c(O)c(N=NC(=O)CNC(=O)/C=C/c2ccc(OC)cc2)c2ccccc21 14.1 µM [inhibitor, partial curve]
Cc1cc(NC(=O)CS(=O)(=O)c2cn(Cc3ccccc3Cl)c3ccccc23)no1 39.8 µM [inhibitor, single point]
Cc1ccc(C(=O)NCCc2ccc(F)cc2)s1 35.5 µM [inhibitor, single point]
CCN(c1ccccc1)S(=O)(=O)c1cc(NC(=O)COC(=O)C2CC2)ccc1Cl 39.8 µM [inhibitor, single point]
COc1cc2cc(C)c3nnc(SCC(=O)Nc4cc(C)on4)n3c2cc1OC 4.47 µM [inhibitor, single point]
COc1cc(/C=C/C(=O)OCc2c(C)noc2C)ccc1OC(F)F 23.8 µM [inhibitor, partial curve]
S=c1[nH]nc(Cc2ccccc2)n1-c1ccccc1 39.8 µM [inhibitor, single point]
Cc1c(C(=O)N2CCCCC2)sc(N)c1C#N 22.4 µM [inhibitor, single point]
O=C(COc1ccccc1[N+](=O)[O-])NNC(=O)Nc1cccc2ccccc12 39.8 µM [inhibitor, single point]
CCCCOc1ccc(-c2cc(C(=O)NNC(=S)NCC)c3ccccc3n2)cc1 35.5 µM [inhibitor, single point]
COCCn1c(=O)[nH]c2cc(C(=O)NCC3CCCO3)ccc2c1=O (stereo unspecified) 28.2 µM [inhibitor, single point]
O=C(CN1CCN(c2ccc(Cl)cc2)CC1)NCc1cccs1 35.5 µM [inhibitor, single point]
Cc1cccc(NC(=O)CCN2C(=O)c3ccccc3C2=O)n1 39.8 µM [inhibitor, single point]
COc1ccc(/C=C(\C#N)C(=O)NCC2CCCO2)cc1OC (stereo unspecified) 25.1 µM [inhibitor, single point]
Cc1ccccc1CN(C)CC(=O)Nc1cccc(S(=O)(=O)N(C)c2ccccc2)c1 31.6 µM [inhibitor, single point]
COc1ccc(C2=C(Nc3ccc(F)cc3)c3ccccc3C2=O)cc1 31.6 µM [inhibitor, single point]
Cc1ccc2c(c1)cc(CN(Cc1ccc3c(c1)OCO3)C(=O)c1cnccn1)c1nnnn12 20 µM [inhibitor, partial curve]
CS(=O)(=O)N1CCN(c2ccc(NC(=S)NC(=O)c3cccs3)cc2)CC1 39.8 µM [inhibitor, single point]
OCCNCCO 28.2 µM [inhibitor, single point]
O=C1C2C3C=CC(C3)C2C(=O)N1CCC(=O)N1CCc2ccccc21 (stereo unspecified) 2.51 µM [inhibitor, partial curve]
O=C(Cc1cccs1)Nc1cccc(C(=O)Nc2ccc(C(=O)O)cc2)c1 39.8 µM [inhibitor, single point]
O=C(COc1c(CO)cc(Br)cc1CO)NC1CCCc2ccccc21 (stereo unspecified) 39.8 µM [inhibitor, single point]
Cc1sc(NC(=O)C2C3CCC(C3)C2C(=O)O)c(C(N)=O)c1-c1ccc(C(C)(C)C)cc1 (stereo unspecified) 15.8 µM [inhibitor, partial curve]
O=C(Nc1ncccc1Cl)C1COc2ccccc2O1 (stereo unspecified) 20 µM [inhibitor, partial curve]
CN1CC(c2ccc(C#N)cc2)C2(COc3ccccc3C2=O)C12C(=O)Nc1ccccc12 (stereo unspecified) 44.7 µM [inhibitor, single point]
CCC/C=N/NC(=O)c1[nH]c2c([N+](=O)[O-])cccc2c1C 3.55 µM [inhibitor, full curve]
CCN(CC)c1ccc2cc(-c3nnc(-c4ccncc4)o3)c(=O)oc2c1 35.5 µM [inhibitor, single point]
NC(=S)N/N=C/c1ccccc1OCc1cccc(Cl)c1 0.501 µM [inhibitor, full curve]
CCn1c(SCC(=O)O)nnc1-c1ccc2[nH]c(C)c(C)c2c1 39.8 µM [inhibitor, single point]
Cc1ccc(S(=O)(=O)NCC(=O)OC(C(=O)c2ccccc2)c2ccccc2)cc1 (stereo unspecified) 22.4 µM [inhibitor, partial curve]

Potency, inactive:
CCN(CC)CCOC(=O)c1cc(Cl)c(N)cc1OC

Potency, active:
CCOc1ccccc1Nc1nnc(SCC(=O)Nc2nc(-c3ccc(OC)cc3)cs2)s1 25.1 µM
COc1cc(C(=O)CSc2nncn2C)cc(OC)c1OC 12.6 µM
O=c1[nH]c(Cc2ccc(F)cc2)nc2scc(-c3ccc(F)cc3)c12 31.6 µM
CC1CCN(C(=O)COc2cccc3c2CCN(Cc2ccccc2)C3=O)CC1 28.2 µM
CC(C)COc1cccc(C(=O)NC(=S)Nc2cccc(NC(=O)c3ccccc3Cl)c2)c1 10 µM
CC(C)Cn1c(=S)[nH]c2cc(Cl)ccc21 8.91 µM
Cc1ccc[n+](CC(=O)Nc2nc3ccccc3s2)c1 14.1 µM
CC(C)(C)c1ccc(S(=O)(=O)CCc2ccccn2)cc1 7.08 µM
COc1cc(C(Nc2ccc3c(c2)OCO3)C(=O)NC2CCCCC2)cc(OC)c1OC (stereo unspecified) 0.631 µM
CCOC(=O)c1c(-c2ccccc2)csc1/N=C/C1C(=O)CCCC1=O 3.55 µM
O=C(CCn1c(=O)oc2ccccc21)NCc1ccc2c(c1)OCO2 15.8 µM
O=C1CCCC2=C1C(c1ccco1)Nc1ccc(C(=O)c3ccccc3)cc1N2 (stereo unspecified) 20 µM
CCOc1ccc(OCC)c(C2C(C#N)=C(N)N(c3cccnc3)C3=C2C(=O)CC(C)(C)C3)c1 (stereo unspecified) 3.55 µM
O=C(NCCCN1CCOCC1)c1cc(C(=O)C2CCCCC2)c[nH]1 25.1 µM
CC1(C)CC(=O)C(C=Nc2cccc(/N=C/C3=C(O)CC(C)(C)CC3=O)n2)=C(O)C1 3.55 µM

activity, negative = inhibition, inactive:
O=C1NC(c2ccc(Cl)c([N+](=O)[O-])c2)Nc2ccccc21 (stereo unspecified) 1.99%
Cc1onc(-c2ccccc2)c1C1=N/C(=C\c2ccccc2F)C(=O)O1 -0.0473%
COc1cc(C(C[N+](=O)[O-])c2c(N)n(C)c(=O)n(C)c2=O)ccc1O (stereo unspecified) -13.1%
COC(=O)c1sc(SC)c(S(=O)(=O)C(C)C)c1N/N=C(\C#N)C(=O)c1ccccc1 7.49%
N#C/C(=C\c1ccc2c(c1)OCCO2)C(=O)NC1CCCCC1 0.606%
Cc1cc(OCC(=O)OCC(=O)Nc2cc(C(F)(F)F)ccc2N2CCOCC2)ccc1Cl 6.1%
CCN(CC)C(=O)CSc1nc2ccccc2c(=O)n1CC -8.03%
CCCC(=O)c1ccc(N2CCN(S(=O)(=O)c3ccccc3)CC2)c(F)c1 -6.33%
C=C(C)CC1(NC(C)c2ccccc2)CCCCC1 (stereo unspecified) 7.39%
COC(=O)NC1CCC(NC(=O)OC)CC1 (stereo unspecified) 8.42%
Cc1cc(C(F)F)nn1CC(=O)Nc1cc([N+](=O)[O-])ccc1F 3.73%
CCc1[nH]nc2c1C(c1ccc(C)o1)C(C#N)=C(N)O2 (stereo unspecified) 1.14%
COc1cc(OC)c(Cl)cc1N -7.74%
CN(C)S(=O)(=O)c1cccc(NC(=S)N2CCCCC2CO)c1 (stereo unspecified) -7.88%
C(=Nc1ccc2c(c1)Cc1ccccc1-2)c1ccccn1 -13.2% [at 13.5 µM]
COCc1ccc(C(=O)NC(C)c2cnn(-c3ccccc3C)c2C)o1 (stereo unspecified) -7.5%
Cc1nnc(N2C(=O)C(O)=C(C(=O)c3ccco3)C2c2ccc(F)cc2)s1 (stereo unspecified) -9.13%
Cn1ccnc1C(O)(c1ccccc1)c1ccccc1 14.1%
Cc1ccc2c(c1)Sc1c(ccc3ccccc13)N2 -3.32%
O=C(O)c1cccc(Cn2cc(Cl)cn2)c1 4.79%
Cc1cc(N=CC2=C(O)CC(C)(C)CC2=O)no1 -7.41%
